# About 450 (0.94%) of roughly 48,000 compounds were called active. Not shown: some 19% with an inconclusive outcome. Calls come from the whole dose curve; as a rule, active = well fitted inhibition curve with a large enough effect; inconclusive = small, poorly fitted or top-dose-only effect; inactive = no such curve, though single readings can be large or run the other way. The list shows a part of the results.
# Assay: Primary qHTS for Identification of Small Molecule Inhibitors of Huntingtin Promoter Activity; note: nearly all actives have a fitted effect of over 50% in size
# Details: HEK293 HTT promoter firefly luciferase reporter (activity 0% = vehicle and -100% = no light), 24 h; series mostly up to 57.5 µM; activity change, negative = inhibition: at the top concentration
# Procedure, shortened: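 Luminescence was read after Dual-Glo reagent and a 10 min room-temperature incubation. Values were normalized to vehicle (0% activity) and zero RLU (-100% activity). Reporter HEK293 cells had been exposed to compounds (up to 57.5 uM final) for 24 h.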
# Potency is the fitted concentration of half-maximal effect.
SMILES,"activity change, negative = inhibition",Potency
Cc1oc2ncn(C)c(=O)c2c1C(=O)NCCCN1CCCCC1C (stereo not given),inactive: -13.3%,–
O=C(Nc1cccc(C(F)(F)F)c1)N1CC2CCCN2c2ccccc21 (stereo not given),inactive: -27.9%,–
COc1ccc(-n2nc(C(=O)Nc3ccc(Cl)cn3)c3c4ccccc4n(C)c3c2=O)cc1,inactive: -7.9%,–
COc1ccc2cc(-c3nnc(Nc4ccccc4)s3)c(=O)oc2c1,inactive: -6.66%,–
CCN(CC)C(=O)N1CCN(C)CC1,inactive: 1.68%,–
Nc1ccc(N=Nc2ccccc2)c(N)n1,inactive: 29%,–
Cc1ccccc1C(=O)OCc1cc(=O)n2nc(C(C)C)sc2n1,inactive: 62%,–
Cc1ccc(N2CCN(C(=O)c3cnn(-c4ccc(F)cc4F)c3C3CCN(C(=O)OC(C)(C)C)CC3)CC2)c(C)c1,inactive: -12.8%,–
CCN1CCN(C(c2ccc(C)cc2)c2c(O)cc(C)n(Cc3ccco3)c2=O)CC1 (stereo not given),inactive: -5.39%,–
COc1ccc(-n2nc(C(=O)O)c(=O)n(C)c2=O)cc1,inactive: -1.73%,–
CCc1ccc(S(=O)(=O)c2nnn3c2nc(NCc2ccccc2)c2cc(Cl)ccc23)cc1,inactive: -4.05%,–
CCN1C(=O)C(Cc2nc3ccccc3c(=O)n2C)c2cc(C)ccc21 (stereo not given),inactive: -14.4%,–
CCCNC(=O)C(Cc1ccccc1)NS(=O)(=O)c1ccc2c(c1)c(=O)n(C)c(=O)n2C (stereo not given),inactive: -6.09%,–
CCOc1ccc(C(=O)Nc2ccc3c(c2)OCCO3)cc1Br,inactive: 32.8%,–
Cc1ccc(-c2csc3ncnc(Nc4ccc(C(=O)O)cc4)c23)cc1,inactive: -14.8%,–
COc1ccccc1-c1nc2cc(NC(=O)c3ccccc3Cl)ccc2o1,inactive: 37.7%,–
COc1ccc2c(c1)CCc1c(C(=O)Nc3ccc(OC)cc3OC)noc1-2,inactive: -10%,–
COc1ccccc1NC(=O)c1sc2nc3n(c(=O)c2c1C)N=C(c1cccc(Br)c1)CS3,inactive: 12.7%,–
COc1ccc(Cn2c(C(=O)O)c(CNC3CCCCC3)c3ccc(C)cc32)cc1,inactive: -2.54%,–
COc1ccc(OC)c(/C=C(\C#N)c2nc(-c3ccc(F)cc3)cs2)c1,inactive: 0.359%,–
COc1ccc(Cl)cc1NC(=O)CN1Cc2ccccc2C1=O,inactive: -24.2%,–
Cc1nc(S(=O)(=O)N2CCN(c3ccccc3F)CC2)cn1C,inactive: -7.39%,–

SMILES,"activity change, negative = inhibition",Potency
Nc1c(-c2nc(-c3ccc4c(c3)OCO4)cs2)c2ccccn2c1C(=O)c1ccc(Cl)cc1,inactive: -10.9%,–
CCOc1ccc(NC(=O)Cc2c[nH]c3ccccc23)cc1,inactive: 48.3%,–
CCCC12CN3CC(C)(CN(C1)C3c1ccc(OCc3ccccc3)cc1)C2=O (stereo not given),inactive: -14.1%,–
Cc1cccc(CNC(=O)CN2C(=O)CSc3c2c(C)nn3-c2ccccc2)c1,inactive: -9.6%,–
COc1cc(C(CC(=O)Nc2ncccc2C)N2Cc3ccccc3C2=O)cc(OC)c1OC (stereo not given),inactive: -14.3%,–
Cc1ccc(C(=O)N2CCC(C)CC2)cc1NC(=O)c1nsc2ccccc12,inactive: -30%,–
O=C(OCc1cc(=O)n2nc(C3CC3)sc2n1)c1ccc(NC(=O)c2ccccc2F)cc1,inactive: -5.86%,–
CCOc1ccc(Br)cc1C1NC(=O)c2c(sc3c2CCN(C)C3)N1 (stereo not given),inactive: 17.8% [at 11.5 µM],–
CC1CCN(S(=O)(=O)c2ccc3nc(N4CCN(c5ccc(F)cc5)CC4)ccc3c2)CC1,inactive: 20.7%,–
COc1ccc(CCNc2ncnc3onc(C)c23)c(OC)c1,–,active: 1.26 µM
COCCCn1c(=N)c(C(=O)NC2CCCCC2)cc2c(=O)n3cc(C)ccc3nc21,inactive: 1.55%,–
CC1CCCCN1CCCNC(=O)Cn1ncc2c3ccccc3n(C)c2c1=O (stereo not given),inactive: 4.8%,–
Cc1ccc(S(=O)(=O)c2cc3cc(C(=O)Nc4ccc(C)cc4C)ccc3oc2=O)cc1,inactive: -17.9%,–
COc1cccc(C(=O)N(Cc2ccc(C)o2)C2CCS(=O)(=O)C2)c1 (stereo not given),inactive: -6.97%,–
COc1ccc(-c2cc(C(F)(F)F)nc(NCc3ccc(F)cc3)n2)cc1,inactive: -24.9%,–
O=C(COCc1cc(-c2cccs2)on1)Nc1cc(C(F)(F)F)ccc1Cl,inactive: -7.11%,–
CC(C)OCCCNC(=O)CCCN1C(=O)CCn2nc(-c3cccn3C)cc21,inactive: -13.2%,–
Cc1cc(C)c(NC(=O)CSc2nc3c([nH]c4ccccc43)c(=O)n2C)c(C)c1,inactive: 4.01%,–
O=C(CN1CCN(Cc2ccc3c(c2)OCO3)CC1)N1c2ccccc2Sc2ccccc21,inactive: 5.8%,–
Nc1ccn([C@@H]2O[C@H](CO)[C@@H](O)[C@H]2O)c(=O)n1,inactive: -19.3%,–
O=C(/C=C/c1ccccc1)OCc1ccccc1,inactive: 17.9%,–
COc1ccc(CCNC(=O)c2ccc(Cn3c(=O)[nH]c4cc(OC)c(OC)cc4c3=O)cc2)cc1OC,inactive: -8.23%,–

SMILES,"activity change, negative = inhibition",Potency
CCCOc1cccc(C2c3c(oc4ccc(F)cc4c3=O)C(=O)N2c2nc(C)c(C(C)=O)s2)c1 (stereo not given),inactive: -19.2%,–
CN1CCN(C(CNC(=O)c2c(F)cccc2F)c2ccc3c(c2)OCO3)CC1 (stereo not given),inactive: -3.21%,–
CCN(C(=O)Cn1ncc2c(=O)oc3ccccc3c21)c1ccccc1F,inactive: 1.03%,–
O=c1c2ccccc2n(Cc2cccc(Cl)c2)c(=O)n1Cc1ccccc1,inactive: -40.2%,–
COCCc1nn2c(=O)cc(COC(=O)c3ccc(Br)cc3)nc2s1,inactive: 9.6%,–
CCC(C)NC(=O)c1sc2nc3n(c(=O)c2c1C)CCC3 (stereo not given),inactive: 16.9%,–
COc1cccc2c1cc1c(=O)n(CC(=O)N3CCC(C)CC3)nc(C)n12,inactive: -4.09%,–
O=c1oc2ccccc2cc1-c1nc(-c2cccs2)no1,inactive: 50.3%,–
CCC(=O)Nc1sc2c(c1C(=O)Nc1ccc(Br)cc1)CCCCC2,inactive: -12.4%,–
Cc1ccc(NC(=O)CCN2C(=O)c3ccccc3Sc3ncccc32)c(Cl)c1,inactive: -21%,–
COc1ccccc1NC(=O)c1sc2nc(C)c(C(=O)Nc3ccc(C)cc3C)c(-c3ccccc3Cl)c2c1N,inactive: -6.25%,–
Cc1ccc2oc(=O)c3cc(C(=O)NCCc4ccc(Cl)cc4)sc3c2c1,inactive: -8.46%,–
CCS(=O)(=O)N1CCc2cc(C(=O)NCc3ccccc3Cl)ccc21,inactive: -3.97%,–
CCCCc1nn2c(=O)cc(COC(=O)c3ccccc3C)nc2s1,inactive: 20%,–
CCc1ccccc1NC(=O)NC(CC)Cn1nnc2ccccc2c1=O (stereo not given),inactive: -0.437%,–
Cc1ccc(C)c(NC(=O)CSc2nc(=O)n(Cc3ccncc3)c3c2CCC3)c1,inactive: -18.8%,–
COC(=O)c1cc2sc(C)cc2n1Cc1nc(-c2ccc(C)cc2)oc1C,inactive: -0.5%,–
CC(=O)N1c2ccc(S(=O)(=O)NCCC(=O)N(C)Cc3ccccc3)cc2CC1C (stereo not given),inactive: -20%,–
Cc1ccc(Nc2c(-c3ccc(C)cc3)nc3c(C)cccn23)cc1,inactive: -13.5%,–
CN(C)CCC(c1ccccc1)c1ccccn1 (stereo not given),inactive: 14%,–
CCOC(=O)c1ccc(NC(=O)Cn2cnc3sc(C(=O)OCC)c(C)c3c2=O)cc1,inactive: -29.6%,–
